Results reported in PubChem BioAssay AID602310 (National Center for Advancing Translational Sciences (NCATS), 2012).
The campaign covered roughly 410,000 compounds. About 310 (0.076%) were called active. The shares of active, inactive and inconclusive entries below differ from those in the screen. Calls follow the shape of the dose curve; as a rule, active = well fitted curve in the direction sought with a large enough effect; inconclusive = small, poorly fitted or top-dose-only effect; inactive = flat fitted curve, though single readings scatter. Where the call is inconclusive, the potency comes from a doubtful curve fit.

Target: DNA dC->dU-editing enzyme APOBEC-3G (Homo sapiens) (UniProt Q9HC16)
Assay: qHTS for Inhibitors of Vif-A3G Interactions: qHTS; also: nearly all actives have a fitted effect of over 60% in size
Conditions: HeLa A3G-eYFP + Vif (tagged APOBEC3G with the HIV-1 protein that degrades it), YFP fluorescence, overnight; series mostly up to 46.1 µM
Method in brief: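 HeLa cells stably expressing Vif and C-terminally eYFP-tagged A3G, seeded overnight at 37 deg C, then exposed to compound by pintool overnight at 37 deg C. Rise in yellow fluorescence (Ex 488/Em 500-530, Acumen) marks blocked Vif-driven A3G degradation.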
Potency is read from the fitted curve at half-maximal effect; tags tell the direction and shape of the fitted curve.

Chain of UniProt Q9HC16 (Q9HC16 whole entry, looked up): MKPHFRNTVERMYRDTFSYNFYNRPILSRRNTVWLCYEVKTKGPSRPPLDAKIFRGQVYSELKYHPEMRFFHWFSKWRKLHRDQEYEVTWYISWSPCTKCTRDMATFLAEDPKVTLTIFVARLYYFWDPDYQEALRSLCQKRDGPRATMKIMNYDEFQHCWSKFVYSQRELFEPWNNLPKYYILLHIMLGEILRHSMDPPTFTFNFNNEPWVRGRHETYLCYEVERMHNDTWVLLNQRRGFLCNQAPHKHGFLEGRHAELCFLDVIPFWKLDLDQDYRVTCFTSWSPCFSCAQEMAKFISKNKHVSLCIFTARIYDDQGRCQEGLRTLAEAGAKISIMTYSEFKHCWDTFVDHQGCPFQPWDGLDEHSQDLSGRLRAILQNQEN

SMILES | Potency
COc1ccc(-c2ccc(CCC(=O)O)n2-c2cc(OC)ccc2OC)cc1 | inconclusive: 10 µM [inhibitor, partial curve, poor fit]
Cn1nc([N+](=O)[O-])nc1Sc1nnc(-c2ccccc2)o1 | inconclusive: 20 µM [inhibitor, partial curve, poor fit]
CCOC(=O)c1[nH]c(C)c(/C(O)=C2\C(=O)C(=O)N(CCCN3CCOCC3)C2c2cccs2)c1C (stereo not given) | inconclusive: 25.1 µM [inhibitor, single point]
CN(/N=C/c1ccc(N(C)C)cc1)C1=NS(=O)(=O)c2ccccc21 | active: 4.47 µM
CCOC(=O)C1=C(CNCc2ccc(C)cc2)NC(=O)NC1c1ccc(OC)cc1 (stereo not given) | inconclusive: 3.55 µM [inhibitor, full curve]
Cc1cc(C)nc(NC(=S)NC(=O)c2ccccc2F)n1 | inactive
Cc1ccc(C(=O)NNC(=S)NC(=O)COc2ccccc2)cc1 | inactive
CCN(CC)S(=O)(=O)c1cc(-c2nnc(Nc3ccc(OC)c(C(N)=O)c3)c3ccccc23)ccc1C | inactive
COc1ccc(C2=NOC(C(=O)NCc3ccccc3)C2)cc1 (stereo not given) | inconclusive: 2.24 µM [inhibitor, full curve, poor fit]
O=C(/C=C/c1ccccc1Cl)c1ccccc(=O)c1O | inconclusive: 3.16 µM [inhibitor, partial curve, poor fit]
Cc1ccc(/C=C/C(=O)c2nc3ccccc3[nH]2)cc1 | inconclusive: 35.5 µM [inhibitor, single point]
CCc1[nH]nc2c1C(Cc1ccccc1)C(C#N)=C(N)O2 (stereo not given) | inactive
O=C(CCS(=O)(=O)c1ccc(F)cc1)Nc1nnc(-c2cccs2)o1 | inconclusive: 35.5 µM [inhibitor, single point]
Cc1ccc(Cl)cc1N1CCN(C(=S)NCc2ccco2)CC1 | inactive
COC(=O)c1ccc(CSc2nnc(Nc3ccccc3OC)s2)o1 | inconclusive: 12.6 µM [inhibitor, partial curve, poor fit]
CC(=O)c1ccc(OCC(=O)N(CCC2=CCCCC2)c2c(N)n(Cc3ccccc3)c(=O)[nH]c2=O)cc1 | inconclusive: 17.8 µM [inhibitor, partial curve, poor fit]
COc1ccc(/C=C/c2ccccn2)cc1 | inactive
c1ccc(COc2ccc(-c3cc4nc(NCCCn5ccnc5)ccn4n3)cc2)cc1 | inconclusive: 28.2 µM [inhibitor, partial curve, poor fit]
O=S(=O)(Nc1nc2n(n1)C(c1ccc(F)cc1)C=C(c1ccccc1)N2)c1ccc(Cl)cc1 (stereo not given) | inconclusive: 22.4 µM [inhibitor, single point]
CN(Cc1ccccc1)C(=O)c1ccc2c(c1)OCO2 | inactive
COc1ccc(CCNC(=O)c2c(C)nn(-c3ccc(F)cc3)c2-n2cccc2)cc1OC | inconclusive: 2.82 µM [inhibitor, full curve, poor fit]
O=c1cc(-c2cccnc2)oc2c1ccc1ccccc12 | inconclusive: 35.5 µM [inhibitor, single point]

SMILES | Potency
O=C(c1ccccc1)c1cc(Cl)ccc1N1C(=O)C=CC1=O | inconclusive: 35.5 µM [inhibitor, single point]
COc1cccc(-c2ccc3c(N)c(C(=O)NCc4ccc(Cl)cc4)sc3n2)c1 | inactive
COc1ccc(OC)c(-c2cc(C(=O)NC(C)c3ccccc3)no2)c1 (stereo not given) | inactive
CC(=O)OCC1=C(C(=O)OC(C)(C)C)N2C(=O)[C@@H](NC(=O)Cc3ccccc3)[C@H]2SC1 | inactive
Cc1cc(C)cc(C(=O)N/N=C/c2ccoc2)c1 | inconclusive: 35.5 µM [inhibitor, single point]
COc1ccc(-c2csc(NC(=O)CSc3nc4ccccc4c(=O)[nH]3)n2)cc1 | inconclusive: 22.4 µM [inhibitor, partial curve, poor fit]
COc1ccccc1C1CC(=O)Nc2cc3c(cc21)OCCO3 (stereo not given) | inconclusive: 2.51 µM [inhibitor, full curve, poor fit]
CCN1C(=O)/C(=C2/Sc3ccc(OC)cc3N2C)SC1=Nc1cccc(O)c1 | active: 10 µM
Nc1ncnc2c1ncn2[C@@H]1O[C@H](CNCc2ccc(OCC(=O)Nc3ccccn3)cc2)[C@@H](O)[C@H]1O | inactive
Cc1ccc2c(c1)S/C(=C/c1ccc[n+](CCO)c1)N2C | inconclusive: 15.8 µM [inhibitor, single point]
Cc1c(/C=N/NC(=O)COc2ccccc2[N+](=O)[O-])c2ccccc2n1C | inactive
O=C(N/N=C/c1cccc(O)c1)c1cc(-c2ccc3c(c2)OCO3)n[nH]1 | inconclusive: 35.5 µM [inhibitor, single point]
Cc1ccc(S(=O)(=O)N(C(=O)c2ccncc2)c2ccc(OC(=O)c3ccncc3)c3ccccc23)c(C)c1 | inconclusive: 35.5 µM [inhibitor, single point]
CSc1nsc(/C=C/Nc2ccc(F)cc2)c1C#N | inconclusive: 11.2 µM [inhibitor, single point]
Cc1ccc(C(=O)N2C(CC(=O)Nc3ccc(Cl)cc3)C(=O)NC3CCCCC32)cc1 (stereo not given) | inconclusive: 6.31 µM [inhibitor, full curve, poor fit]
COC(=O)N/N=C\c1ccc(-c2cc(Cl)c(Cl)cc2Cl)o1 | inconclusive: 3.16 µM [inhibitor, full curve, poor fit]
Cc1ccc(C)c(Nc2c([N+](=O)[O-])c(=O)oc3ccccc23)c1 | inconclusive: 25.1 µM [inhibitor, single point]
Cc1ccc(C(=O)Nc2nc(C)c(C(=O)Nc3ccc4c(c3)CCC4)s2)cc1 | inconclusive: 1.58 µM [inhibitor, partial curve, poor fit]
CCCCn1c(NC(=S)Nc2ccccc2)nc2ccccc21 | inactive
COc1ccc(C(=O)/C=C/c2ccc(OC)c(COc3ccccc3F)c2)cc1 | inconclusive: 11.2 µM [inhibitor, partial curve, poor fit]
COc1ccccc1-c1cc(C(F)(F)F)nc(S(=O)(=O)CCCC(=O)Nc2cc(OC)c(OC)c(OC)c2)n1 | inactive
COc1ccccc1NS(=O)(=O)c1cc(NC(=O)c2cccs2)ccc1N1CCCCC1 | inactive

SMILES | Potency
Cc1ccc2c(c1)c1c(c(=O)n(-c3ccccc3C)c(=O)n1CC(=O)NCc1ccccc1)n2C | inactive
CCOC(=O)c1ccc(N2C(=O)c3n[nH]c(-c4cccs4)c3C2c2ccc(C(C)C)cc2)cc1 (stereo not given) | inconclusive: 15.8 µM [inhibitor, single point]
O=C(N/N=C/c1cccnc1)c1cc(-c2ccccc2OCc2ccccc2)n[nH]1 | inconclusive: 11.2 µM [inhibitor, partial curve, poor fit]
O=C(NCCc1ccccc1)c1ccc2c(c1)S(=O)(=O)c1cc(Cl)ccc1C2=O | inconclusive: 12.6 µM [inhibitor, single point]
CCS(=O)(=O)c1ncc(Cl)c(C(=O)N2CCN(c3cccc(Cl)c3)CC2)n1 | inconclusive: 3.16 µM [inhibitor, single point]
COCCOC(=O)N/C=C\c1nc2ccccc2c(=O)[nH]1 | inconclusive: 15.8 µM [inhibitor, single point]
O=Nc1c(O)n(Cc2cccc(C(F)(F)F)c2)c2ccccc12 | inactive
COC(=O)[C@@H]1C[C@]2(OC(=O)c3ccccc3)C=CC(=O)C[C@@H]2N1C(=O)OCc1ccccc1 | inconclusive: 28.2 µM [inhibitor, single point]
Nc1c(S(=O)(=O)c2ccccc2)c2nc3ccccc3nc2n1C1CC1 | inactive
C=CCOc1c(Cl)cc(C(=S)N2CCCC2)cc1OCC | inconclusive: 3.55 µM [inhibitor, full curve, poor fit]
CCOc1ccc(-c2cn3c(n2)sc2cc(C(=O)NCCCN(CC)CC)ccc23)cc1 | inconclusive: 35.5 µM [inhibitor, single point]
COc1ccc(/C=C/C(=O)c2cc(F)ccc2OC(=O)c2ccccc2)cc1OC | inconclusive: 0.562 µM [inhibitor, full curve, poor fit]
O=C(Nc1ccc(N2CCCC2)c(Cl)c1)c1ccc([N+](=O)[O-])o1 | inconclusive: 2.82 µM [inhibitor, partial curve, poor fit]
Cc1ccc2c(c1)C(=O)C(=O)N2Cc1ccc(OC(C)C)cc1 | inconclusive: 2.51 µM [inhibitor, full curve, poor fit]
O=C(CC1C(=O)NCCN1Cc1cccc(F)c1F)NCCCC1CCCC1 (stereo not given) | inactive
Cc1cc(/C=C2\Sc3ccccc3N2C)cc(C)[n+]1CC1CCCO1 (stereo not given) | inconclusive: 35.5 µM [inhibitor, single point]
CCCC(=NCCc1c(C)[nH]c2ccccc12)C1=C(O)CC(c2ccccc2)CC1=O (stereo not given) | inconclusive: 2.24 µM [inhibitor, partial curve, poor fit]
COc1cc(NC(=O)c2ccc([N+](=O)[O-])o2)ccc1NC(=O)c1ccco1 | inconclusive: 5.62 µM [inhibitor, single point]
O=C1c2ccccc2C(=O)N1Cc1cnc(N2CCN(c3ccccc3)CC2)s1 | inconclusive: 3.55 µM [inhibitor, partial curve, poor fit]
COc1ccc(O)c(/C=C2/SC(=S)N(Cc3ccccc3)C2=O)c1 | inconclusive: 28.2 µM [inhibitor, single point]
COc1cccc(NC(=O)CN(C)C(=O)/C=C/c2ccc3ccccc3n2)c1 | inactive
